Among all 150,000 compounds or so, about 540 (0.36%) showed an effect of 50% or more. This is one part of the list.

Experimental findings from ChEMBL document CHEMBL4888484, “Replenishing the malaria drug discovery pipeline: Screening and hit evaluation of the MMV Hit Generation Library 1 (HGL1) against asexual blood stage Plasmodium falciparum ,using a nano luciferase reporter read-out” (2022) are described below.

In this test the test system is Plasmodium falciparum. Kind of test: Primary screen in NF54 nanoGlo assay, in single point, at 2uM, 72h; a lower Z score goes with more inhibition. The following applies: timepoint 72 hour. The format is functional, Erythrocyte.
A word on the % Inhibition: it is the relative decrease from the control value, in per cent. With `CCc1cccc(NC(=O)Cn2nc3c(N4CCC[C@H](C)C4)nccn3c2=O)c1`, the “% Inhibition” value is given as -1% and the Z score is on record as 0.15.
Turning to `Cc1cc(C(=O)Nc2nn(Cc3ccccc3F)cc2Br)c2cnn(C)c2n1`, the “% Inhibition” value is recorded as -2% and the Z score is reported as 0.34.
In the case of `Cc1nn(Cc2ccccc2)c(C)c1S(=O)(=O)N1CCC(N2CCN(c3ncc(C(F)(F)F)cc3Cl)CC2)CC1`, the “% Inhibition” value is listed as -10% and the Z score is 1.08.
Consider `O=C(C1CCC1)N1CCN(Cc2cccs2)[C@@H]2CS(=O)(=O)C[C@@H]21`, for which the “% Inhibition” value turned out to be 5% and the Z score is -0.67.
On to `COc1ccc(C(=O)NC[C@@]2(COc3cnccn3)C[C@@H](O)[C@@H](O)C2)cc1`, for which the “% Inhibition” value is -5% and the Z score is 0.74.
Consider `CN1CC(=O)N(C[C@H](O)COCc2ccc3c(c2)OCO3)C1=O`, for which the “% Inhibition” value was -2% and the Z score came out at 0.18.
Turning to `CS(=O)(=O)C[C@H]1CCCN(C(=O)c2cccc3c2CCCC3)C1`, the “% Inhibition” value is -17% and the Z score is recorded as 2.25.
Taken in the same sequence, the figures for `Cc1cnn(C)c1S(=O)(=O)N1CCCCO1` were 5% and -0.46.
In the same order, the values of `COc1ccccc1C(=O)Nc1ccc(OC(=O)c2cnc3onc(C)c3c2)cc1` are -11% and 1.62.
For the compound `CC(C)(CNC(=O)c1coc(COc2ccc3c(c2)OCO3)n1)N1CCCC1`, the “% Inhibition” value was -15% and the Z score came out at 2.32.
Regarding `O=C(NCCc1ccccn1)c1ccc2c3c(cccc13)CC2`, the “% Inhibition” value is given as -13% and the Z score amounted to 1.91.
For the compound `COCc1cc(N2CCN(c3nc(C)cc(C(F)(F)F)n3)CC2)ncn1`, the “% Inhibition” value is reported as -10% and the Z score is reported as 1.37.
With `Cc1cc(C)nc(-c2ccc(C(=O)NCCF)cc2)n1`, the “% Inhibition” value is on record as -4% and the Z score is reported as 0.48.
In the case of `CO[C@@H](CNC(=O)NC(C)C)c1cccc(Cl)c1`, the “% Inhibition” value is recorded as -7% and the Z score worked out at 0.95.
In the same order, the values of `CNC[C@H]1CCCN1Cc1ccc(OC)c(OC(F)F)c1` are -10% and 1.03.
Regarding `c1ccc(-c2ccccc2OC2CCNCC2)cc1`, the “% Inhibition” value was -4% and the Z score came out at 0.45.
On to `O=C(Nc1cnn(CC(=O)N2CCNC(=O)[C@@H]2Cc2ccccc2)c1)c1ccc2c(c1)OCO2`, for which the “% Inhibition” value came out at 5% and the Z score is -1.
Take `CN1CCN(CC[C@H]2CCCCN2C(=O)c2cccnc2N(C)C)CC1`: the “% Inhibition” value was -4% and the Z score came out at 0.93.
Take `O=C(Cc1noc(-c2ccsc2)n1)NC1CCCCC1`: the “% Inhibition” value is reported as -6% and the Z score is 0.61.
For the compound `O=C(NC1CCCCCCC1)[C@@H]1COc2ccccc2O1`, the “% Inhibition” value is reported as -10% and the Z score came out at 1.17.
Turning to `COCCN1CCN([C@@H](C)Cc2ccc(C)cc2)CCC1=O`, the “% Inhibition” value is given as -14% and the Z score turned out to be 1.88.
For the compound `Cc1[nH]c(-c2ccc(F)cc2)cc1C(=O)N1CCN(c2cccc(Cl)c2)CC1`, the “% Inhibition” value came out at 6% and the Z score is reported as -1.1.
Taken in the same sequence, the figures for `CCCCc1c(C)nn(-c2nc(C)c(C(=O)Nc3ccc(C)c(Cl)c3)s2)c1O` were -5% and 0.66.
On to `CO[C@H]1[C@H](NC(=O)CC2CCCC2)c2ccccc2C12CCNCC2`, for which the “% Inhibition” value stood at 5% and the Z score was -0.91.
In the same order, the values of `CCNC(=O)CN(CC(=O)NCC)S(=O)(=O)c1ccc(Br)cc1` are -6% and 0.62.
In the same order, the values of `Cc1ncsc1CNC(=O)NCCc1nccn1C(F)F` are -2% and 0.23.
`O=C(NC[C@]1(O)CCOc2ccccc21)C(=O)Nc1cccc(N2CCCC2=O)c1`: the “% Inhibition” value was found to be 0% and the Z score is reported as -0.01.
Consider `Cc1nnccc1C(=O)NC1(C(=O)N2CCOCC2)CCCCC1`, for which the “% Inhibition” value is -1% and the Z score was found to be 0.08.
On to `CCn1nc(C)c(CNc2ccc(OC)nc2C)c1C`, for which the “% Inhibition” value is reported as -11% and the Z score is 1.08.
Taken in the same sequence, the figures for `Cc1c2c(c(C)n1C)[C@H](C(=O)NC1CCC(C)CC1)N(c1ccc(Cl)cc1)C2=O` (some centres undefined) were 2% and -0.33.
Turning to `CCOc1ccccc1C1c2[nH]c3ccccc3c2C[C@H]2C(=O)N(CCc3ccc(F)cc3)CC(=O)N12` (some centres undefined), the “% Inhibition” value is reported as 2% and the Z score is listed as -0.26.
Turning to `N#CC1(C(=O)NC2CCC(C(=O)O)C2)CCCC1` (centres undefined), the “% Inhibition” value is -10% and the Z score was determined as 1.23.
With `O=C(Nc1ccccc1)c1ccc(-c2nc3cccnc3n(C3CCCC3)c2=O)cc1`, the “% Inhibition” value is -2% and the Z score was 0.33.
As to `CC(=O)c1cccc(C(=O)N2CCC(c3nccn3CC3CC3)CC2)c1`, the “% Inhibition” value is -4% and the Z score was found to be 0.39.
Turning to `Cc1ccccc1C(=O)NCc1ccccc1COCc1ccccc1`, the “% Inhibition” value was -4% and the Z score is 0.84.
For the compound `CC1CCCC(CNC(=O)NCc2cc(Cl)sc2Cl)O1` (centres undefined), the “% Inhibition” value is 0% and the Z score is -0.03.
As for `Cc1cc(C(=O)N2CCC[C@@H]2CNC(=O)OC(C)(C)C)c(C)o1`, the “% Inhibition” value is recorded as -18% and the Z score turned out to be 1.97.
Take `Cc1noc(CN2CCN(Cc3cc4c(cc3Cl)OCO4)CCC2=O)n1`: the “% Inhibition” value is -11% and the Z score was determined as 2.14.
For the compound `CN(C)[C@@]1(c2nnnn2C2CCCC2)CCN(C(=O)C2CCCC2)C1`, the “% Inhibition” value is given as -2% and the Z score amounted to 0.28.
As for `CCc1nc2ccc(Cl)cn2c1C(=O)N1CCc2cnc(N)nc2C1`, the “% Inhibition” value was -11% and the Z score came out at 1.86.
In the same order, the values of `Cc1ccc(Cn2nnc3cc(C(=O)N4CCc5ccccc54)ccc32)cc1` are -10% and 1.
Taken in the same sequence, the figures for `COC[C@H]1CN(C(=O)CCc2nc3ccccc3[nH]2)CCC1(F)F` were -8% and 1.42.
